# The whole screen tested about 46,000 compounds, of which about 60 (0.1%) were called active. The inconclusive results got no clear call from the source; some entries with a clear call stand among them for comparison. Calls come from the whole dose curve; as a rule, active = well fitted inhibition curve with a large enough effect; inconclusive = small, poorly fitted or top-dose-only effect; inactive = no such curve, though single readings can be large or run the other way. Potencies of inconclusive entries are left out as doubtful fits.
# Assay: Primary qHTS assay for Inhibitors of ovarian cancer metastasis using an organotypic tumor microenvironment (TME) model.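 For Potency: count of GFP cancer cells still attached after washing and fixation.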 Note: nearly all actives have a fitted effect of over 65% in size.
# Conditions: SKOV3ip1-GFP adhesion/invasion on 3D omental model, fluorescence; series mostly up to 45.8 µM
# Procedure, shortened: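 Adhesion/invasion was scored as fixed GFP-labeled SKOV3ip1 cell counts (488/509 nm), normalized to DMSO and tomatine controls. Cancer cells in serum-free medium, with four compound doses (0.36-46 umol/L), sat 2 hr at RT then 16 hr at 37 C on a 48 hr fibroblast/mesothelial/ECM culture.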
# Potency is the fitted concentration of half-maximal effect; tags give direction and shape of the fitted curve.
row,Structure (SMILES),Potency
1,CCOC(=O)C1CCN(S(=O)(=O)c2csc(C(N)=O)c2)CC1,"inconclusive [inhibitor, single point]"
2,CCOc1ccc(C(=O)NCCS(=O)(=O)N2CCN(c3ccccc3F)CC2)cc1OCC,"inconclusive [inhibitor, single point]"
3,O=C(NCCc1ccccc1)c1cc(Sc2cccc(Cl)c2)nc2ccccc12,"inconclusive [inhibitor, single point]"
4,C1=CCOCc2cc(ccc2OCCN2CCCC2)Nc2nccc(n2)-c2cccc(c2)OCC1,"inconclusive [inhibitor, full curve, poor fit]"
5,COc1ccc(CCCc2nnc(SCC(=O)Nc3ccc(OC)cc3)o2)cc1,inactive
6,COc1cc(C2c3c(-c4cc(C)ccc4O)n[nH]c3C(=O)N2CCCO)ccc1OCCC(C)C (configuration not stated),"inconclusive [inhibitor, single point]"
7,CCc1ccc(-c2[nH]nc3nc(-c4ccc(OC)cc4)cc(C(=O)NCCc4ccc(OC)c(OC)c4)c23)cc1,"inconclusive [inhibitor, single point]"
8,COc1ccc(OC)c(-c2cc(C(=O)Nc3cnn(Cc4ccc(Cl)cc4Cl)c3)no2)c1,"inconclusive [inhibitor, single point]"
9,CCN1CCN(c2ncc3c(n2)CCN(Cc2ccc(Br)s2)C3)CC1,"inconclusive [inhibitor, single point]"
10,CCC(CC)c1nn2c(=O)cc(COc3ccc(NC(=O)c4cccc(Cl)c4)cc3)nc2s1,"inconclusive [inhibitor, single point]"
11,CCOc1ccc(C(=O)NCC(c2ccc3c(c2)OCO3)N2CCN(c3ccccc3F)CC2)cc1 (configuration not stated),"inconclusive [inhibitor, partial curve, poor fit]"
12,CCN1CCN(CCCNC(=O)c2cc3c(s2)-c2ccccc2OC3)CC1,"inconclusive [inhibitor, partial curve, poor fit]"
13,CC(=O)C1=C(c2ccc(C)cc2)N(C(C)=O)n2c(nnc2C2CCCCC2)S1,"inconclusive [inhibitor, single point]"
14,COc1cccc2cc(-c3nc(Nc4cccc(C)c4)sc3C)c(=O)oc12,"inconclusive [inhibitor, partial curve, poor fit]"
15,Cc1ccc(S(=O)(=O)N2CC=C(c3c(C)n(CC(=O)N4CCCC4)c4ccccc34)CC2)cc1C,"inconclusive [inhibitor, full curve, poor fit]"
16,COc1ccc(N(Cc2cccs2)C(=O)c2ccco2)cc1,"inconclusive [inhibitor, single point]"
17,CCNc1nc(NCc2ccc(F)cc2)c2cnn(C)c2n1,inactive
18,COc1ccc(CC(=O)Nc2sc3c(c2C(=O)Nc2ccccc2)CCCCC3)cc1,inactive
19,Cc1c(C(=O)Nc2nc(-c3ccc(F)cc3)ns2)oc2ccc(Cl)cc12,"inconclusive [inhibitor, single point]"
20,Cc1ccccc1NC(=O)c1ccc2c(c1)c(C)c(C)n2Cc1ccccc1,"inconclusive [inhibitor, full curve, poor fit]"
21,CCOC(=O)c1c(-c2ccccc2)oc2ccc(NS(=O)(=O)c3cc(C)c(C)cc3C)cc12,"inconclusive [inhibitor, single point]"

row,Structure (SMILES),Potency
1,Clc1ccc(Nc2nnc(Cc3ccncc3)c3ccccc23)cc1,inactive
2,Cn1cc(-c2ccc3nnc(Sc4ccc5ncccc5c4)n3n2)cn1,inactive
3,Cc1c(C(=O)NCc2cccc(Cl)c2)sc2ncnc(N(C)C3CCCCC3)c12,"inconclusive [inhibitor, single point]"
4,CCCOc1cccc(C(=O)Nc2cccc3cccnc23)c1,inactive
5,COC(=O)c1c(SCC(=O)Nc2cc(OC)cc(OC)c2)[nH]c2ccc(C)cc2c1=O,inactive
6,Cn1c(C(=O)Nc2cccc(C(F)(F)F)c2)cc2c(=O)n3ccccc3nc21,inactive
7,Cc1cccc(N2CCN(CCNC(=O)Nc3ccc(Cl)cc3)CC2)c1C,"inconclusive [inhibitor, single point]"
8,CCOC(=O)c1c(NC(=O)c2cc(-c3cccc(OC)c3)on2)sc2c1CCCC2,"inconclusive [inhibitor, partial curve, poor fit]"
9,CCN(CC)C(=O)c1ccc(Nc2nnc(-c3ccc(C)c(S(=O)(=O)NC)c3)c3ccccc23)cc1,"inconclusive [inhibitor, single point]"
10,CC(C)CN(CCCNC(=O)CN1N=C(c2ccc(Cl)cc2)CCC1=O)CC(C)C,"inconclusive [inhibitor, single point]"
11,CCNC(=O)Nc1ccc(-c2nc3c(c(N4CCOC[C@H]4C)n2)CCN(C2COC2)C3)cc1,inactive
12,CCOC(=O)N1CCN(Cc2nc3cc(NC(=O)c4ccccc4[N+](=O)[O-])ccc3n2C(C)C)CC1,"inconclusive [inhibitor, single point]"
13,Cc1oc(-c2ccc(Cl)cc2)nc1CS(=O)CC(=O)N1CCN(c2cccc(C(F)(F)F)c2)CC1 (configuration not stated),"inconclusive [inhibitor, single point]"
14,CC(C(=O)NCc1ccc(Cl)cc1)n1ccc2cc(S(=O)(=O)N3CCCCCC3)ccc21 (configuration not stated),"inconclusive [inhibitor, full curve]"
15,CCCN(CCC)CC(O)Cn1cc(/C=C/C(=O)c2ccc(C)cc2)c2ccccc21 (configuration not stated),"inconclusive [inhibitor, single point]"
16,O=C1c2[nH]nc(-c3ccccc3O)c2C(c2cccc(O)c2)N1Cc1ccncc1 (configuration not stated),"inconclusive [inhibitor, single point]"
17,Cc1ccc(C(=O)Nc2nc3n(n2)C(c2ccc(F)cc2)C=C(c2ccccc2)N3)cc1 (configuration not stated),"inconclusive [inhibitor, single point]"
18,C=CC(=O)Nc1cccc(Nc2nc(NC3CCC(N(C)C)CC3)nc3c2ncn3C(C)C)c1 (configuration not stated),"inconclusive [inhibitor, partial curve, poor fit]"
19,COC(=O)c1ccc(NC(=O)CC2Nc3cc(C)c(C)cc3NC2=O)cc1 (configuration not stated),active: 4.47 µM
20,CCOc1ccc(N2C(=O)c3n[nH]c(-c4cccs4)c3C2c2cccc(F)c2)cc1 (configuration not stated),"inconclusive [inhibitor, single point]"
21,Cc1ccc(NS(=O)(=O)c2cc3[nH]c(=O)c(=O)[nH]c3cc2C)cc1Cl,inactive

row,Structure (SMILES),Potency
1,CC(C)C(=O)NCC1(N(C)C)CCCCC1,"inconclusive [inhibitor, single point]"
2,CCOC(=O)c1ccc(-c2ccc(/C=C(\C#N)c3nc4ccc(C)cc4[nH]3)o2)cc1,active: 3.16 µM
3,Cc1c(Cl)cccc1NC(=O)CC(c1ccc(F)cc1)N1Cc2ccccc2C1=O (configuration not stated),"inconclusive [inhibitor, single point]"
4,Cc1ccc2[nH]cc(C(c3ccccc3)c3ccc(C)s3)c2c1 (configuration not stated),"inconclusive [inhibitor, single point]"
5,Cc1nn(CC(=O)N2CCN(c3cccc(C(F)(F)F)c3)CC2)c(=O)c2cc3sccc3n12,"inconclusive [inhibitor, single point]"
6,C=CCn1c(=O)c2cnc(Nc3ccc(N4CCN(C)CC4)cc3)nc2n1-c1cccc(C(C)(C)O)n1,inactive
7,CCCCCN(CCC12CC3CC(CC(C3)C1)C2)C(=O)NCCCc1ccncc1,inactive
8,Cc1cn([C@@H]2O[C@H](CO)[C@@H](O)[C@H]2F)c(=O)[nH]c1=O,inactive
9,COC(=O)c1ccccc1NC(=O)Cn1c(=O)n(CCC(=O)NCc2ccccc2OC)c(=O)c2ccccc21,"inconclusive [inhibitor, single point]"
10,COc1ccc(CC(=O)Nc2sc3c(c2C(=O)Nc2cccc(Cl)c2)CCCCC3)cc1,"inconclusive [inhibitor, single point]"
11,CCOc1ccc(NC(=O)C2CC(=O)NC(=Nc3ccc(Cl)c(Cl)c3)S2)cc1 (configuration not stated),inactive
12,O=C(c1ccc(CS(=O)c2ccccc2Cl)o1)N1CCN(c2cccc(C(F)(F)F)c2)CC1 (configuration not stated),inactive
13,COc1ccc(S(=O)(=O)NCC(c2ccco2)N2CCN(c3ccccc3F)CC2)cc1C (configuration not stated),"inconclusive [inhibitor, full curve, poor fit]"
14,Cn1nc(-c2ccc(C(=O)Nc3ccc(OC(F)(F)F)cc3)cc2)c2ccccc2c1=O,"inconclusive [inhibitor, single point]"
15,CN(C)c1ccc2cc(C(=O)N[C@@H](CCCN=C(N)CCl)C(=O)NCc3ccccc3)ccc2c1,"inconclusive [inhibitor, partial curve]"
16,Cc1ccccc1CS(=O)(=O)c1ncc(Cl)c(C(=O)Nc2nnc(C(C)C)s2)n1,"inconclusive [inhibitor, single point]"
17,Cc1sc(NC(=O)C2c3ccccc3Oc3ccccc32)c(C(=O)OC(C)C)c1C,"inconclusive [inhibitor, single point]"
18,CCCCN(CC)CCCNC(=O)c1ccc2c(c1)N(Cc1ccc(C)cc1)C(=O)c1ccccc1S2,"inconclusive [inhibitor, single point]"
19,Cc1cccc(NC(=O)Cn2c(=O)n(Cc3nc(-c4ccccc4)no3)c(=O)c3ccccc32)c1,"inconclusive [inhibitor, single point]"
20,Cc1ccc(CNC(=O)C2CCCN(c3nc4ccccc4n4cccc34)C2)cc1 (configuration not stated),"inconclusive [inhibitor, single point]"

# From PubChem BioAssay AID1963576 (National Center for Advancing Translational Sciences (NCATS), 2024)
